# These are yes or no findings as the source states them, for the method shown. Binding seen in cells or lysates may run through a third protein. Some results given as binding are weak or reduced against the parent protein; the word gives no strength.
# The chains behind the UniProt entries cited, without tags or fusion partners. Where a name states a change or a piece, a line headed by the entry shows the natural chain unless it says otherwise.
# UniProt P45983: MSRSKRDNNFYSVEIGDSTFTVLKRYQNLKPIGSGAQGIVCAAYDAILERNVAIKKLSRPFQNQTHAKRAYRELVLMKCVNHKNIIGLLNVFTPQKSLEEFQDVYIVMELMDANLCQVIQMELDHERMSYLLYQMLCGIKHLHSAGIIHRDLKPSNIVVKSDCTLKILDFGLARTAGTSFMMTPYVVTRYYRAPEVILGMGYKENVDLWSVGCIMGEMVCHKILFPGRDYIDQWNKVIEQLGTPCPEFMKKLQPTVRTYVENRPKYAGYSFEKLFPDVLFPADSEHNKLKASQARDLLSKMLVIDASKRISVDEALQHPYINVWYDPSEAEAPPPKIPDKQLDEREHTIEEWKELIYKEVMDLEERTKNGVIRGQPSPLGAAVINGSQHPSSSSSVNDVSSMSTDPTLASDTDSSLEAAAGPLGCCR
# UniProt O14733: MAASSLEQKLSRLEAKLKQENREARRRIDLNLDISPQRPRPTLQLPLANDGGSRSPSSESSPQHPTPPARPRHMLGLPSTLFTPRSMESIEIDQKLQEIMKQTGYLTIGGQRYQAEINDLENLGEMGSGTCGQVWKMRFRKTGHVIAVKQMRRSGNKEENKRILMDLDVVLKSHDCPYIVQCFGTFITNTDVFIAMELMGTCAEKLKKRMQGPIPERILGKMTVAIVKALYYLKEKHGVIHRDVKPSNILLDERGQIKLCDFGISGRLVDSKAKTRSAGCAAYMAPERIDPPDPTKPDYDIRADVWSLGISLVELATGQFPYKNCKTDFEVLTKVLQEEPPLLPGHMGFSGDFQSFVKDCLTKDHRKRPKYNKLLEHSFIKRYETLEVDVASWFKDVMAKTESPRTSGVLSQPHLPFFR
# UniProt Q9BT88: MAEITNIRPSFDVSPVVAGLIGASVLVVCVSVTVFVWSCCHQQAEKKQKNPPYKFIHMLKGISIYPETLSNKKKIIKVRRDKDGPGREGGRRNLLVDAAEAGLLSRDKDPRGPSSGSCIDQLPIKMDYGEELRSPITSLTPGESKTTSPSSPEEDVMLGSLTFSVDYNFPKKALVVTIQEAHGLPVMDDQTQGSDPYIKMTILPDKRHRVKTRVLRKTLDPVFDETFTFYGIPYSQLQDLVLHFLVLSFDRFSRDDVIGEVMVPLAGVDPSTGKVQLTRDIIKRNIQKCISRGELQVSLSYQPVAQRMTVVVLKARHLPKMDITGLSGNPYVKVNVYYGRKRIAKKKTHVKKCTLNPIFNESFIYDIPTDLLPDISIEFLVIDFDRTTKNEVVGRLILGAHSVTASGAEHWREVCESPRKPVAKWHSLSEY
# Columns and labels:
# Experiment in all cases: co-IP; MKN1 and/or HEK293T cells co-transfected with the tagged proteins; cell lysates immunoprecipitated with anti-Myc or anti-GFP antibody, western blot (Fig. 3A-E); also in MKK7 knocked-down cells (JNK1-SYT11 binding inhibited)
# Myc-JNK1 WT = Myc-JNK1 WT (UniProt P45983)
# Myc-MKK7 = Myc-MKK7 (UniProt O14733)
# Myc-JNK1 T183A = Myc-JNK1 T183A (UniProt P45983)
# Myc-JNK1 Y185F = Myc-JNK1 Y185F (UniProt P45983)
# Myc-JNK2 = Myc-JNK2 (UniProt P45984)
Substance,binding (Myc-JNK1 WT),binding (Myc-MKK7),binding (Myc-JNK1 T183A),binding (Myc-JNK1 Y185F),binding (Myc-JNK2)
HA-MKK7 (from UniProt O14733 1-419) (enzyme),binds,–,–,–,–
GFP-SYT11 (synaptotagmin 11) (from UniProt Q9BT88 1-431),binds,binds,no binding,no binding,binds
